Among all 370,000 compounds or so, about 500 (0.14%) were called active. The shares of active, inactive and inconclusive entries below differ from those in the screen. Calls come from the whole dose curve; as a rule, active = well fitted activation curve with a large enough effect; inconclusive = small, poorly fitted or top-dose-only effect; inactive = no such curve, though single readings can be large or run the other way. No potency is given beside an inconclusive call; the fits are too rough.
Test: qHTS of alpha-syn Inhibitors; note: nearly all actives have a fitted effect of over 65% in size; for growth rescue (activation): % of control where 0% means no effect
Settings: Yeast expressing alpha-synuclein, BacTiter-Glo, 24 h; Potency: growth rescue; growth rescue (activation): at 46.1 µM (top of the series)
Text: The goal of this project is to identify new chemical probes capable of reversing the toxicity associated with the Parkinson disease-related protein, alpha-synuclein. Compounds will be selected on their ability to restore growth in yeast cells expressing toxic levels of alpha-synuclein. These compounds will provide a complementary approach to deciphering the tangled mechanisms of toxicity and protection that we have uncovered through genome-wide genetic screens and are beginning to uncover in a large-scale proteomics analysis with mass spectroscopy. To this end, a miniaturized assay was developed to be screened against the Molecular Libraries Small Molecule Repository (MLSMR) to discover alpha-synuclein inhibitors. Please note that in the set-up this yeast-based assay compounds that inhibit as alpha-syn, have a read-out as activators. NIH Chemical Genomics Center [NCGC] NIH Molecular Libraries Probe Centers Network [MLPCN] MLPCN Grant: NS060957 Assay Submitter (PI): Susan Lindquist, Whitehead Institute/MIT
Dispense 2.5 microL yeast galactose medium per 1536-well plate, pin compound, dispense 2.5 microL alpha-synuclein expressing yeast in galactose medium at OD600=0.02 (pregrown in raffinose medium to mid-log phase) per well, incubate for 24 hr at 30 deg C, and cell growth will be measured using 5 microL of Bactiter/Glo reagent to entire plate and read using Luminescence Protocol in ViewLux.
Potency is the fitted concentration of half-maximal effect; tags give direction and shape of the fitted curve.

**Q.** With `Oc1cccc2nc3ccccc3nc12` as the compound, how does the Potency read?
**A.** inconclusive [activator, single point]

**Q.** With `CC(=O)NCC(N)C(=O)c1ccc(Cl)c(Cl)c1` (stereo not drawn) as the compound, how does the Potency read?
**A.** inconclusive [activator, partial curve, poor fit]

**Q.** For `CC(=O)[C@H]1CCC2C3CC=C4C[C@@H](OS(=O)(=O)O)CC[C@]4(C)C3CC[C@@]21C` (stereo partly drawn), which Potency is on record?
**A.** inconclusive [activator, single point]

**Q.** With `CC(=O)c1c(C)[nH]c(C(=O)N2CCC3(CC2)OCCO3)c1C` as the compound, how does the Potency read?
**A.** inconclusive [activator, single point]

**Q.** For `Clc1ccc(CCC(Cn2ccnc2)Sc2c(Cl)cccc2Cl)cc1` (stereo not drawn), which growth rescue (activation) is on record?
**A.** inconclusive: -31.5% [activator]

**Q.** For `CCC(c1nnnn1C(C)(C)C)N1CCC2(CC1)C(=O)NCN2c1ccccc1` (stereo not drawn), which Potency is on record?
**A.** inconclusive [activator, single point]

**Q.** Which Potency does the source give for `Fc1ccc2c(c1)nnn2C1CCN(Cc2nnnn2C2CCCCC2)CC1` here?
**A.** inconclusive [activator, single point]

**Q.** With `COC(=O)C1=CO[C@@H](C)[C@@H]2CN3CC[C@]4(C(=O)Nc5ccccc54)[C@@H]3C[C@H]12` as the compound, how does the Potency read?
**A.** inconclusive [activator, single point]

**Q.** Which Potency does the source give for `O=C(CN1CC(c2ccccc2)CC1=O)Nc1ccc(F)cc1` (stereo not drawn) here?
**A.** inconclusive [activator, single point]

**Q.** Which Potency does the source give for `COc1cc2nc(N3CCCN(C)CC3)nc(N(C)C3CCN(C)CC3)c2cc1OC` here?
**A.** inactive

**Q.** For `Cc1ccccc1-n1c(-c2ccc([N+](=O)[O-])cc2)nc2ccccc2c1=O`, which Potency is on record?
**A.** active: 20 µM

**Q.** With `O=C(N/N=C/c1c(O)n(C2CCCCC2)c(=S)[nH]c1=O)c1ccccc1O` as the compound, how does the Potency read?
**A.** inactive

**Q.** With `O=C(Nc1ccc(Cl)cc1)Nc1ccc(Cl)c(Cl)c1` as the compound, how does the Potency read?
**A.** inactive

**Q.** Which Potency does the source give for `Cn1cnc([N+](=O)[O-])c1Sc1ccc([N+](=O)[O-])cc1` here?
**A.** inactive

**Q.** With `S=C(Nc1ccccc1)Nc1ccccn1` as the compound, how does the Potency read?
**A.** inconclusive [activator, single point]

**Q.** With `COC(=O)c1ccc(COC(=O)c2nn(C)c(=O)c3ccccc23)cc1` as the compound, how does the Potency read?
**A.** inconclusive [activator, single point]

**Q.** With `N#Cc1c(Cl)nc(Cl)c2c1CCN(Cc1ccccc1)C2` as the compound, how does the Potency read?
**A.** inactive

**Q.** For `COCCCn1c(N)c(C(=O)Nc2sc3c(c2C(=O)OC)CCCC3)c2nc3ccccc3nc21`, which Potency is on record?
**A.** inconclusive [activator, single point]

**Q.** Which Potency does the source give for `O=S(=O)(c1ccc(Cl)cc1)N1CCC(n2cnc3cc(C(F)(F)F)ccc32)CC1` here?
**A.** inconclusive [activator, single point]

**Q.** For `O=C(CSC1c2ccccc2-c2ccccc21)N/N=C/c1ccccc1O`, which Potency is on record?
**A.** inconclusive [activator, single point]

**Q.** With `CCNC(=O)[C@H]1O[C@@H](n2cnc3c(N)ncnc32)[C@H](O)[C@@H]1O` as the compound, how does the Potency read?
**A.** inconclusive [activator, single point]

**Q.** For `Cc1cc(C)n(-c2nc3nonc3nc2Nc2cccc(C)c2C)n1`, which Potency is on record?
**A.** inconclusive [activator, single point]

**Q.** With `CN1CC(C(=O)c2ccc(F)cc2)C(c2ccc(F)cc2)C1` (stereo not drawn) as the compound, how does the Potency read?
**A.** inconclusive [activator, single point]

**Q.** With `CC(C)N1C(=O)NC(=O)C2(Cc3cc([N+](=O)[O-])ccc3N(C)C2c2ccccc2)C1=O` (stereo not drawn) as the compound, how does the Potency read?
**A.** inconclusive [activator, partial curve]

**Q.** For `COC(=O)C1=C(c2ccc(F)cc2F)C[C@@H]2CC[C@H]1N2C(=O)N1CCC(O)(c2ccc(Cl)cc2)CC1`, which Potency is on record?
**A.** inconclusive [activator, single point]

**Q.** With `Cc1ccc(C2=NOC(C)(c3nnc(-c4ccccc4)o3)C2)cc1` (stereo not drawn) as the compound, how does the Potency read?
**A.** inconclusive [activator, single point]

**Q.** For `CCOC(=O)[C@]12Cc3ccc4ccccc4c3[C@H]1N(Cc1ccccc1)C(=O)c1ccccc12`, which Potency is on record?
**A.** inconclusive [activator, single point]

**Q.** For `CC(O)(CS(=O)(=O)c1cccc(C(F)(F)F)c1)C(=O)Nc1ccc(C(F)(F)F)cc1` (stereo not drawn), which Potency is on record?
**A.** inactive

**Q.** For `CC(C)(C)C(=O)C(Oc1ccc(Cl)cc1)n1cncn1` (stereo not drawn), which Potency is on record?
**A.** inconclusive [activator, partial curve]

**Q.** Which Potency does the source give for `Cc1nc2ccccc2c(=O)n1-c1ccccc1[N+](=O)[O-]` here?
**A.** inactive

**Q.** Which Potency does the source give for `COc1cccc(C(c2nnnn2Cc2ccccc2)N2CCC3(CC2)C(=O)NCN3c2ccccc2)c1OC` (stereo not drawn) here?
**A.** inconclusive [activator, single point]

**Q.** Which Potency does the source give for `O=c1c2ccccc2[nH]c(=S)n1-c1cccc(Cl)c1` here?
**A.** inconclusive [activator, single point]

**Q.** Which Potency does the source give for `CCN(C[C@H]1N[C@@](C)(C(=O)OC)[C@H]2C(=O)N(Cc3ccccc3)C(=O)[C@@H]12)C(=O)Nc1ccccc1` here?
**A.** inconclusive [activator, single point]

**Q.** Which Potency does the source give for `OC[C@@H](O)[C@@H](O)CO` here?
**A.** inconclusive [activator, single point]

**Q.** For `COc1ccc(C[C@H]2NC[C@H](O)[C@H]2OC(C)=O)cc1`, which Potency is on record?
**A.** inconclusive [activator, single point]

**Q.** For `CN(CCOc1ccc(C=C2C(=O)NC(=O)NC2=O)cc1)c1ccccn1`, which Potency is on record?
**A.** inactive

**Q.** For `C[C@@H]1CN([C@H](C)CO)C(=O)c2cc(Br)cnc2O[C@H]1CN(C)C(=O)Cc1ccncc1`, which Potency is on record?
**A.** inconclusive [activator, single point]

**Q.** With `C[C@H](CO)N1C[C@H](C)[C@@H](CN(C)C(=O)Oc2ccc3ccccc3c2)OCc2cn(nn2)CCCC1=O` as the compound, how does the Potency read?
**A.** inconclusive [activator, single point]

**Q.** With `NC(N)=N/N=C/c1c(Cl)cccc1Cl` as the compound, how does the Potency read?
**A.** inconclusive [activator, single point]

**Q.** Which growth rescue (activation) does the source give for `O=C1C(=O)c2ccccc2-c2ccccc21` here?
**A.** inconclusive: -81.8% [activator]

**Q.** With `CCCCCCCCN1C(=O)[C@H](CC(=O)N2CCCCC2)C[C@@]2(C(=O)OCC)CCCC=C12` as the compound, how does the Potency read?
**A.** inconclusive [activator, single point]

**Q.** With `CCOCCCn1c(N)c(C(=O)Nc2sc3c(c2C(=O)OC)CCCC3)c2nc3ccccc3nc21` as the compound, how does the Potency read?
**A.** inconclusive [activator, partial curve]

**Q.** With `COc1cccc(NP(=O)(Oc2ccccc2)Oc2ccccc2)c1` as the compound, how does the Potency read?
**A.** inconclusive [activator, partial curve]

**Q.** With `O=C(Cn1c(=O)oc2ccccc21)Nc1ccc(Br)cc1` as the compound, how does the Potency read?
**A.** inconclusive [activator, single point]

**Q.** Which Potency does the source give for `CCCCNC(=O)c1c(N)n(Cc2ccc3c(c2)OCO3)c2nc3ccccc3nc12` here?
**A.** inconclusive [activator, partial curve]

**Q.** Which Potency does the source give for `CCC1(O)CCC2C3CCC4=CC(=O)CCC4C3CCC21CC` (stereo not drawn) here?
**A.** inconclusive [activator, single point]

**Q.** Which Potency does the source give for `CCCCn1c(=O)c(C(=O)Nc2ncccc2C)c(O)c2ccccc21` here?
**A.** inconclusive [activator, single point]

**Q.** With `S=C(NCCc1ccccc1)N1Cc2ccc(Br)cc2-n2nncc2C1` as the compound, how does the Potency read?
**A.** inconclusive [activator, single point]

**Q.** For `COc1ccc(N2C(=O)CC(N3CC=C(c4ccccc4)CC3)C2=O)cc1` (stereo not drawn), which Potency is on record?
**A.** inconclusive [activator, full curve, poor fit]

**Q.** Which Potency does the source give for `CCn1c(O)c(/C=N/NC(=O)c2ccccc2)c(=O)n(CC)c1=S` here?
**A.** inconclusive [activator, single point]

**Q.** For `CC(=O)C1C2c3ccccc3OC1(C)N=c1s/c(=C/c3cn(C)nc3C)c(=O)n12` (stereo not drawn), which Potency is on record?
**A.** inactive

**Q.** For `Cc1cc(N2C(=O)CC(N3CCC(n4c(=O)[nH]c5ccccc54)CC3)C2=O)no1` (stereo not drawn), which Potency is on record?
**A.** inconclusive [activator, partial curve]

**Q.** Which Potency does the source give for `NC1=C(Br)C(=O)c2ccccc2C1=O` here?
**A.** inconclusive [activator, single point]

**Q.** With `O=C(C[C@H]1C=C[C@H](NC(=O)Nc2ccccc2F)[C@@H](CO)O1)NCc1ccc(-c2ccccc2)cc1` as the compound, how does the Potency read?
**A.** inconclusive [activator, single point]

**Q.** With `CC1CC(C)CC(C)C(O)C(C#N)=CC=CCC(C2CCCC2C(=O)O)OC(=O)CC(O)C(C)C1` (stereo not drawn) as the compound, how does the Potency read?
**A.** inconclusive [activator, single point]

**Q.** With `CNC(=O)O/N=C/C(C)(C)S(C)=O` (stereo not drawn) as the compound, how does the Potency read?
**A.** inconclusive [activator, single point]

**Q.** For `Cc1ccc(-c2cc(-c3ccc(C)cc3)[n+](-c3ccccc3)c(-c3ccc(C)cc3)c2)cc1`, which Potency is on record?
**A.** inactive

**Q.** With `COc1cccc(NC(=O)c2cccn(Cc3ccccc3C)c2=O)c1` as the compound, how does the Potency read?
**A.** inconclusive [activator, single point]

**Q.** With `CC(C)OP(=O)(Oc1ccc(C(O)C(Cl)(Cl)Cl)cc1)OC(C)C` (stereo not drawn) as the compound, how does the Potency read?
**A.** inconclusive [activator, single point]

**Q.** For `CCOc1ccc(NS(=O)(=O)c2ccc(Cl)c(N=Nc3c(O)[nH]c(=S)[nH]c3=O)c2)cc1Br`, which Potency is on record?
**A.** inconclusive [activator, single point]

**Q.** Which Potency does the source give for `COc1ccc(Cn2c(N)c(C(=O)NCc3ccco3)c3nc4ccccc4nc32)cc1OC` here?
**A.** inconclusive [activator, single point]

**Q.** Which growth rescue (activation) does the source give for `CCCCCN1C(=O)c2cc(OC)ccc2[C@@]2(C(=O)OCC)Cc3cc(OC)ccc3[C@@H]12` here?
**A.** inconclusive: -80.2% [activator]

**Q.** For `COc1cc(CN2CCCC(C(=O)c3sccc3C)C2)cc(OC)c1O` (stereo not drawn), which Potency is on record?
**A.** inconclusive [activator, single point]

— PubChem BioAssay AID652106 (National Center for Advancing Translational Sciences (NCATS), 2013)
